The text below walks through data of paper PMC7819943, “Rice protein-binding microarrays: a tool to detect cis-acting elements near promoter regions in rice”.

The list shows a part of the results.

For this test, the target named is T1, OsWOX13 (Oryza sativa, UniProt Q5QMM3 1-267).
T1 sequence: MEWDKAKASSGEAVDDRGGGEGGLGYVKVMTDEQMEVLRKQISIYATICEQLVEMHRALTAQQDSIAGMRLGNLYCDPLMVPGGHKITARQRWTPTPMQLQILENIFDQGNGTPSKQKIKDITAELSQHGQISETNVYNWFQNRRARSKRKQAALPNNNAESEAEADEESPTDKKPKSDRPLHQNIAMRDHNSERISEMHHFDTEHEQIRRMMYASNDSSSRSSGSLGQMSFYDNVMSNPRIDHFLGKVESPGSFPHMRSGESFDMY
The experiment in a line: protein-binding microarray (RPBM); PBS, 2% BSA, 51.3 ng/ul salmon testes DNA, 50 uM zinc acetate, 200 nM TF, 25 C, 1 h; high values mean tight binding. The following applies: protein: recombinant; tags: N-terminal polyhistidine and DsRed monomer fusion (pET32a); label: CyDye5-dUTP incorporated in the synthesized complementary strand; 3' TTTTT single-stranded linker to array surface; dsDNA, one strand shown. An outline of the steps: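 The binding signal for each feature is its fluorescence intensity in arbitrary units. An Axon 4000B scanner was used to read a custom Agilent array that had been made double-stranded with Cy5-dUTP primer extension, blocked with 2% BSA, incubated at 25 °C for 1 h with 200 nM protein in PBS, 2% BSA, salmon testes DNA and 50 µM zinc acetate, and washed. The protein was an N-terminal polyhistidine–DsRed transcription factor fusion from E. coli BL21-CodonPlus, purified on Ni–NTA.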
As for “TCCTAATCACCTCGTTATTTAGCCATTCAGACCAAAAGAACGGAGTCACCTAGTGCAG”, the binding signal is 7680 fluorescence intensity (a.u.).
Turning to “TTTTGATAGAATACTGTTGGTAACATCATGTCTAGTTTGTCGGAGTCACCTAGTGCAG”, the binding signal is 14400 fluorescence intensity (a.u.).
Take “ACTATAATGAGCAATCTTCAGCGGGCATAGTCCACCCAACCGGAGTCACCTAGTGCAG”: the binding signal was 6830 fluorescence intensity (a.u.).
For “TACGTTTAATATTTATAATTAATATTCAAACATCCGATGTCGGAGTCACCTAGTGCAG”, the binding signal was 5410 fluorescence intensity (a.u.).
As for “AACGATGACTGCAGGATATTATGTTCCTATTGCAAAGTCTCGGAGTCACCTAGTGCAG”, the figure is 3390 fluorescence intensity (a.u.); as for “CACTTGCTAATCACTCTCACTCTCATCTTAGCTTGTCCATCGGAGTCACCTAGTGCAG”, 6680 fluorescence intensity (a.u.).
For “AACGGGATAGACATATTAACTGTTCTCTTGCACGAGTATCCGGAGTCACCTAGTGCAG”, the binding signal was 12200 fluorescence intensity (a.u.).
Regarding “TTAACAGATTCTTCTTAATTAATAAATAAGCTGTCATGATCGGAGTCACCTAGTGCAG”, the binding signal was 17300 fluorescence intensity (a.u.).
As for “AAATTATATATGATTAGTTCTAATCAACCAAAATTATAGTCGGAGTCACCTAGTGCAG”, the figure is 14000 fluorescence intensity (a.u.); as for “GTGTGATCATATTTACAGCTAATTATTCTTTCAGCGGTAGCGGAGTCACCTAGTGCAG”, 6810 fluorescence intensity (a.u.); as for “GTAAATTGAACGGTTTCGTATAATTTAGGGGTGAAGATTTCGGAGTCACCTAGTGCAG”, 21000 fluorescence intensity (a.u.).
Turning to “TCGTTAATTATTCAAACATTGCTTGTTCCTCATCTACAGCCGGAGTCACCTAGTGCAG”, the binding signal is 39400 fluorescence intensity (a.u.).
As for “ATTATATTGATCAATGACTCTGCTACTACTGCTCCCATATCGGAGTCACCTAGTGCAG”, the figure is 15600 fluorescence intensity (a.u.); as for “GACGATTTGAAGATTACTGAAATTCACATGGCATTATGGTCGGAGTCACCTAGTGCAG”, 3920 fluorescence intensity (a.u.).
Then “TTAACAATTGGATTTGATATGATTGTGCTTTGTGATGTATCGGAGTCACCTAGTGCAG”, with 13100 fluorescence intensity (a.u.); and “CTAATTGATAAGTGTAAAGATATTGTGAGCAACTACAATTCGGAGTCACCTAGTGCAG”, with 42700 fluorescence intensity (a.u.).
With “CTTGACGGGCTAGGGCCATAACTGAGCATTGCCACGTCAGCGGAGTCACCTAGTGCAG”, the binding signal was 5460 fluorescence intensity (a.u.).
Take “TGCTAAATTGCTAATACATACCTCTATGTTGTTGTGTTTTCGGAGTCACCTAGTGCAG”: the binding signal is 18500 fluorescence intensity (a.u.).
As for “CTAATTGGGAGATGGAGCTCGAATTGAGTTCTTGGTGGGGCGGAGTCACCTAGTGCAG”, the figure is 12400 fluorescence intensity (a.u.); as for “ACCACCTCTAATGAAAGGGTGATTGCAACCACTCATCCATCGGAGTCACCTAGTGCAG”, 9090 fluorescence intensity (a.u.).
“TAATTAGATTGTTAAACCTTAATTGATCTATAGGACCAAACGGAGTCACCTAGTGCAG”: the binding signal is 28700 fluorescence intensity (a.u.).
Then “TTAAAACTAATACTTAATTAATTATGCGCTAATTTATGTTCGGAGTCACCTAGTGCAG”, with 22000 fluorescence intensity (a.u.).
As for “GATCAGTGCAATTATTGACTTTTCCTTGTGAAATGAAATTCGGAGTCACCTAGTGCAG”, the figure is 3670 fluorescence intensity (a.u.); as for “AATAATTACAACTACAATTTAATAACGTGAAAGTATTCTACGGAGTCACCTAGTGCAG”, 11900 fluorescence intensity (a.u.).
Take “TTTGATTTGCAGGTTTAGGTCCAGGTACCCTTGTGGGTTCCGGAGTCACCTAGTGCAG”: the binding signal was 22600 fluorescence intensity (a.u.).
For the sequence “AGTGGGGATAGGATGGGGAATTGAGGAAGGAACTCCCTCCCGGAGTCACCTAGTGCAG”, the binding signal was 3360 fluorescence intensity (a.u.).
Then “GATAATTGTCAAACTAAAAGAGATAAATAATTAAATTCCCCGGAGTCACCTAGTGCAG”, with 20400 fluorescence intensity (a.u.); and “AAAACAGTTTGATTAGCTTTCTGTCGAATCTGTCATGCATCGGAGTCACCTAGTGCAG”, with 16500 fluorescence intensity (a.u.); and “TGCAAATTGCTGATTTGCTCATTGGTTAGAAAAGGACATCCGGAGTCACCTAGTGCAG”, with 24400 fluorescence intensity (a.u.).
As for “TATCATTTGATTTATTGTTAAATATACTTTCATGTATACACGGAGTCACCTAGTGCAG”, the figure is 12500 fluorescence intensity (a.u.).
As for “TATGATTGTGTTTTATGATGAATTGTTGACCATTGAGACTCGGAGTCACCTAGTGCAG”, the figure is 39300 fluorescence intensity (a.u.); as for “TATACACGCAATTAGATATATTAGTCTGAACGAGGGCATCCGGAGTCACCTAGTGCAG”, 3540 fluorescence intensity (a.u.).
In the case of “GCATTCTCTTTCCAACCAATCACAACCCTTCACCATTCACCGGAGTCACCTAGTGCAG”, the binding signal was 3440 fluorescence intensity (a.u.).
In the case of “CCATATTTAATGGATAGATTTATATTGCCATATGGATAATCGGAGTCACCTAGTGCAG”, the binding signal was 19700 fluorescence intensity (a.u.).
Consider “TTATTAATTGATAAAATATAGAAATATTGATTTATTGTTTCGGAGTCACCTAGTGCAG”, for which the binding signal was 52500 fluorescence intensity (a.u.).
For “CAAAATTTTGTTATTGCTAAAATTTGGTAAGGTTTATTTTCGGAGTCACCTAGTGCAG”, the binding signal is 9750 fluorescence intensity (a.u.).
Regarding “ATCACCGACTAATTAATTAATTAATTAATCATCCTTGATTCGGAGTCACCTAGTGCAG”, the binding signal is 38800 fluorescence intensity (a.u.).
Consider “GGGGATTAGATCGAACTGTTCGTCTGTTCCCCTCGCCCCTCGGAGTCACCTAGTGCAG”, for which the binding signal is 7540 fluorescence intensity (a.u.).
Turning to “GGAGATGATGAGCTGGTCAAGCTCTACCTTGATCGCGAGGCGGAGTCACCTAGTGCAG”, the binding signal is 5320 fluorescence intensity (a.u.).
Then “TCACTCTGTTAGACACCGTTAATTTTGTCAAAATGACCAACGGAGTCACCTAGTGCAG”, with 4490 fluorescence intensity (a.u.); and “CTAATTAATCCGTCATTAGCAAATGTTTATTATAGCACCACGGAGTCACCTAGTGCAG”, with 13900 fluorescence intensity (a.u.); and “TTCCTCCGTATATATCAATCATCGCCCAACTCCAGCTCCCCGGAGTCACCTAGTGCAG”, with 7080 fluorescence intensity (a.u.).
